Laboratory results taken from the supplement of paper PMC4604168 (melanoma cell lines).
This is one part of the list. Repeats are few or missing, and single values can be far off.

What was measured:
Assay in all cases: cell count relative to DMSO control; melanoma cells; higher = more viable cells
Details in all cases: library dose: standard library concentration; 72 h
G361 = tested on: G361
IPC-298 = tested on: IPC-298
IST-MEL1 = tested on: IST-MEL1
LB2518-MEL = tested on: LB2518-MEL
LOXIMVI = tested on: LOXIMVI
MEL-HO = tested on: MEL-HO
MZ2-MEL = tested on: MZ2-MEL
MeWo = tested on: MeWo
RPMI7951 = tested on: RPMI7951
RVH-421 = tested on: RVH-421
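Further: cells treated in 1,536-well plates, then fixed and DAPI-stained, with nuclei counted from automated high-throughput microscope images.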

Structure (SMILES) | cell count (G361) | cell count (IPC-298) | cell count (IST-MEL1) | cell count (LB2518-MEL) | cell count (LOXIMVI) | cell count (MEL-HO) | cell count (MZ2-MEL) | cell count (MeWo) | cell count (RPMI7951) | cell count (RVH-421)
COc1ccc(C2=N[C@@H](c3ccc(Cl)cc3)[C@@H](c3ccc(Cl)cc3)N2C(=O)N2CCNC(=O)C2)c(OC(C)C)c1 [Nutlin-3] + NCC(=O)Nc1ccc(-n2nc(C(F)(F)F)cc2-c2ccc3c(ccc4ccccc43)c2)cc1 [OSU03012] (first compound 0.5 µM, partner dose 5 µM) | 61.5% | 52.9% | 98% | 74.4% | 61.4% | 80.4% | 97.2% | 81.9% | 91.4% | 68.5%
CC(C)C[C@H](NC(=O)[C@H](Cc1ccccc1)NC(=O)c1cnccn1)B(O)O [Bortezomib] + CS(=O)(=O)CCNCc1ccc(-c2ccc3ncnc(Nc4ccc(OCc5cccc(F)c5)c(Cl)c4)c3c2)o1 [lapatinib] (first compound 0.005 µM, partner dose 4 µM) | 0.412% | 7.23% | 2.91% | 1.45% | 27.9% | 33.5% | 4.14% | 18.2% | 1.41% | 5.01%
Cc1cc(Nc2cc(N3CCN(C)CC3)nc(/C=C/c3ccccc3)n2)n[nH]1 + CNC(=O)c1cc(Oc2ccc(NC(=O)Nc3ccc(Cl)c(C(F)(F)F)c3)cc2)ccn1 [sorafenib] (first compound 0.2 µM, partner dose 2 µM) | 84.3% | 73.7% | 105% | 67.2% | 96.5% | 92.2% | 92.2% | 84.5% | 58.9% | 102%
Cc1cc(Nc2cc(N3CCN(C)CC3)nc(/C=C/c3ccccc3)n2)n[nH]1 + CC(C)(C)c1cnc(CSc2cnc(NC(=O)C3CCNCC3)s2)o1 [SNS-032] (first compound 0.2 µM, partner dose 0.05 µM) | 96.5% | 97.7% | 104% | 64.9% | 72.3% | 98.3% | 83.3% | 76.8% | 29.7% | 59.3%
Cn1c(=O)n(-c2ccc(C(C)(C)C#N)cc2)c2c3cc(-c4cnc5ccccc5c4)ccc3ncc21 + Cn1nnc2c(C(N)=O)ncn2c1=O [temozolomide] (first compound 0.02 µM, partner dose 10 µM) | 55.6% | 76.1% | 73.8% | 79.5% | 76.5% | 79.3% | 75.5% | 76.7% | 72.7% | 97.3%
Cc1cn(-c2cc(NC(=O)c3ccc(C)c(Nc4nccc(-c5cccnc5)n4)c3)cc(C(F)(F)F)c2)cn1 [nilotinib] + COC(=O)c1sccc1S(=O)(=O)Nc1ccc(Nc2ccccc2)cc1OC [GSK0660] (first compound 1 µM, partner dose 5 µM) | 77.9% | 97% | 114% | 106% | 70.2% | 99.6% | 81.9% | 92.7% | 93% | 79.1%
CC(C)C[C@H](NC(=O)[C@H](Cc1ccccc1)NC(=O)c1cnccn1)B(O)O [Bortezomib] + C[C@@H]1CCN(C(=O)CC#N)C[C@@H]1N(C)c1ncnc2[nH]ccc12 [CP690550] (first compound 0.005 µM, partner dose 5 µM) | 0.763% | 10.4% | 12.6% | 3.25% | 8.27% | 35.7% | 3.27% | 20.1% | 5.13% | 4.5%
Cn1c(=O)n(-c2ccc(C(C)(C)C#N)cc2)c2c3cc(-c4cnc5ccccc5c4)ccc3ncc21 + O=C1NC(=O)/C(=C/c2ccc(-c3ccc(F)cc3O)o2)S1 [AS252424] (first compound 0.02 µM, partner dose 5 µM) | 68.6% | 75.8% | 79.3% | 84.5% | 91.8% | 56.7% | 95.9% | 71.3% | 85.9% | 79.9%
Cc1cc(Nc2cc(N3CCN(C)CC3)nc(/C=C/c3ccccc3)n2)n[nH]1 + CN1CCN(c2ccc3nc(-c4c(N)c5c(F)cccc5[nH]c4=O)[nH]c3c2)CC1 [Dovitinib] (first compound 0.2 µM, partner dose 0.5 µM) | 75.4% | 48.3% | 84.1% | 54.2% | 74.4% | 72.4% | 37.3% | 45.9% | 77% | 99.7%
Cc1cn(-c2cc(NC(=O)c3ccc(C)c(Nc4nccc(-c5cccnc5)n4)c3)cc(C(F)(F)F)c2)cn1 [nilotinib] + O=C(O)[C@@H]1[O][Sb](=[O])([O][Sb]2(=[O])[O][C@H]([C@H](O)CO)[C@H](O)[C@H](C(=O)O)[O]2)[O][C@H]([C@H](O)CO)[C@@H]1O [stibogluconate] (first compound 1 µM, partner dose 10 µM) | 75.7% | 98.7% | 102% | 91.7% | 110% | 83.8% | 97.2% | 101% | 106% | 97.9%
COc1ccc(C2=N[C@@H](c3ccc(Cl)cc3)[C@@H](c3ccc(Cl)cc3)N2C(=O)N2CCNC(=O)C2)c(OC(C)C)c1 [Nutlin-3] + O=c1cc(-c2cccc3c2Sc2ccccc2S3)oc(N2CCOCC2)c1 [KU55933] (first compound 0.5 µM, partner dose 5 µM) | 52.6% | 72% | 82.5% | 74.3% | 86.1% | 74.2% | 76.5% | 82.3% | 90.4% | 17.4%
Cn1c(=O)n(-c2ccc(C(C)(C)C#N)cc2)c2c3cc(-c4cnc5ccccc5c4)ccc3ncc21 + Nc1ccn([C@@H]2O[C@H](CO)[C@@H](O)C2(F)F)c(=O)n1 [gemcitabine] (first compound 0.02 µM, partner dose 0.002 µM) | 31.5% | 44.3% | 43.4% | 67.9% | 49.3% | 59.4% | 60.8% | 32.6% | 59.9% | 71.3%
COc1ccc(C2=N[C@@H](c3ccc(Cl)cc3)[C@@H](c3ccc(Cl)cc3)N2C(=O)N2CCNC(=O)C2)c(OC(C)C)c1 [Nutlin-3] + COc1cc2ncnc(Nc3ccc(Oc4ccccc4)cc3)c2cc1OC [SrcI1] (first compound 0.5 µM, partner dose 10 µM) | 40.2% | 72.3% | 80% | 117% | 84.1% | 79.1% | 69.8% | 65.5% | 45.9% | 74.6%
Cn1c(=O)n(-c2ccc(C(C)(C)C#N)cc2)c2c3cc(-c4cnc5ccccc5c4)ccc3ncc21 + COc1ccc(COc2ccc(Cc3cnc(N)nc3N)cc2OC)cc1 [GW2580] (first compound 0.02 µM, partner dose 5 µM) | 58.5% | 73% | 82.7% | 102% | 86.6% | 61% | 79.4% | 70.8% | 77% | 87.9%
Cc1cn(-c2cc(NC(=O)c3ccc(C)c(Nc4nccc(-c5cccnc5)n4)c3)cc(C(F)(F)F)c2)cn1 [nilotinib] + O=S(=O)(c1ccccc1)N(CC(F)(F)F)c1ccc(C(O)(C(F)(F)F)C(F)(F)F)cc1 [T0901317] (first compound 1 µM, partner dose 7 µM) | 62.6% | 99.2% | 85.8% | 96.1% | 118% | 74.8% | 80.3% | 75.9% | 69.6% | 83.4%
Cn1c(=O)n(-c2ccc(C(C)(C)C#N)cc2)c2c3cc(-c4cnc5ccccc5c4)ccc3ncc21 + COc1cc(N2CCC(N3CCN(C)CC3)CC2)ccc1Nc1ncc(Cl)c(Nc2ccccc2S(=O)(=O)C(C)C)n1 [NVP-TAE684] (first compound 0.02 µM, partner dose 0.4 µM) | 52.9% | 71.3% | 69.8% | 75.8% | 76.8% | 67.7% | 79.1% | 48.7% | 64.5% | 65.8%
COc1ccc(C2=N[C@@H](c3ccc(Cl)cc3)[C@@H](c3ccc(Cl)cc3)N2C(=O)N2CCNC(=O)C2)c(OC(C)C)c1 [Nutlin-3] + C[C@]1(O)C[C@@H](c2nc(-c3ccc4ccc(-c5ccccc5)nc4c3)c3c(N)nccn32)C1 [OSI906] (first compound 0.5 µM, partner dose 2 µM) | 63.8% | 63.3% | 102% | 56.3% | 79.7% | 92% | 76.1% | 78.7% | 93.3% | 80.1%
CC(C)C[C@H](NC(=O)[C@H](Cc1ccccc1)NC(=O)c1cnccn1)B(O)O [Bortezomib] + Cn1nnc2c(C(N)=O)ncn2c1=O [temozolomide] (first compound 0.005 µM, partner dose 10 µM) | 0.553% | 7.14% | 9.28% | 1.84% | 9.83% | 22.3% | 3.53% | 17% | 2.2% | 3.35%
Cc1cc(Nc2cc(N3CCN(C)CC3)nc(/C=C/c3ccccc3)n2)n[nH]1 + c1cc(-c2cnn3cc(-c4ccc(OCCN5CCCCC5)cc4)cnc23)ccn1 [Dorsomorphin] (first compound 0.2 µM, partner dose 2 µM) | 41.8% | 76.6% | 84.3% | 64.2% | 107% | 85.4% | 60.2% | 46.8% | 66.2% | 82%
Cn1c(=O)n(-c2ccc(C(C)(C)C#N)cc2)c2c3cc(-c4cnc5ccccc5c4)ccc3ncc21 + CS(=O)(=O)CCNCc1ccc(-c2ccc3ncnc(Nc4ccc(OCc5cccc(F)c5)c(Cl)c4)c3c2)o1 [lapatinib] (first compound 0.02 µM, partner dose 4 µM) | 50% | 81.2% | 75.3% | 77.2% | 56.9% | 64.1% | 55.2% | 58.6% | 63.5% | 73.2%
COc1ccc(C2=N[C@@H](c3ccc(Cl)cc3)[C@@H](c3ccc(Cl)cc3)N2C(=O)N2CCNC(=O)C2)c(OC(C)C)c1 [Nutlin-3] + Cn1c(Nc2ccc(C(F)(F)F)cc2)nc2cc(Oc3ccnc(-c4ncc(C(F)(F)F)[nH]4)c3)ccc21 [CHIR265] (first compound 0.5 µM, partner dose 0.4 µM) | 18.2% | 42.9% | 76.4% | 26.3% | 61.9% | 65.6% | 49.5% | 58.4% | 45.1% | 62.1%
